# Laboratory results reported in PubChem BioAssay AID1508624 (National Center for Advancing Translational Sciences (NCATS), 2021).
# The whole screen tested about 48,000 compounds, of which about 120 (0.25%) were called active. About 4% were inconclusive and are not listed. The call rests on the fitted dose curve; in most records, active means well fitted activation curve with a large enough effect; inconclusive means small, poorly fitted or top-dose-only effect, or another doubt; inactive means no such curve, though single readings can be large or run the other way. Some of the results follow.
# Assay: Primary qHTS for Identification of Small Molecule Activators of Huntingtin-Antisense Promoter Activity; further: nearly all actives have a fitted effect of over 55% in size
# Settings: HEK293 HTT-AS promoter firefly luciferase reporter, 24 h; series mostly up to 57.5 µM; activity change, positive = activation: at the top concentration
# Method in brief: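 Quantitative HTS used concentration series of up to 57.5 uM final on HEK293 luciferase reporter cells, 24 h at 37 degrees C. Readout was Dual-Glo firefly luminescence.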
row,Structure (SMILES),"activity change, positive = activation"
1,Cn1nc(C(=O)N2CCN(c3cccc(Cl)c3)CC2)c2c1-c1ccccc1S(=O)(=O)C2,inactive: -8.39%
2,CCc1cc2c(cc3c(=O)n(CC(=O)N4CCC(C)CC4)nc(CC)n32)s1,inactive: -14.7%
3,NCCCNCCSP(=O)(O)O,"inactive: -2.87% [at 11.5 µM, percent change from vehicle, -100% = no light]"
4,CCCCCn1c(NCc2ccccc2OC)nc2ccccc21,inactive: -59%
5,CCCS(=O)(=O)c1ncc(Cl)c(C(=O)Nc2c(C(=O)c3ccccc3)oc3ccccc23)n1,inactive: -16.7%
6,CC(=O)c1cccc(NC(=O)CCc2c(C)nc3c(-c4ccc(F)cc4)c(C)nn3c2C)c1,inactive: -20%
7,Cc1ccc2c(=O)c3cccc(CC(=O)O)c3oc2c1C,inactive: -33.1%
8,O=C(Nc1ccccc1)N1CCN(C(=O)c2nsc3ccccc23)CC1,inactive: -25.1%
9,CCCc1nc2sc3c(N4CCCCC4)ncnc3c2c2c1CCCC2,inactive: -6.14%
10,COc1ccc(OC)c(NC(=O)Cn2cc(S(=O)(=O)c3ccccc3)c(=O)c3cc(C)ccc32)c1,inactive: 3.13%
11,Cc1ccc(CCNC(=O)CCn2c(=O)c3cccn3c3ccc(F)cc32)cc1,inactive: -23.7%
12,Cc1cc(=O)n2nc(N3CCC(C(=O)Nc4ccc(C(C)C)cc4)CC3)sc2n1,inactive: -21.5%
13,COc1c(Cl)cc(Cl)cc1/C=C(\C#N)c1nc2ccccc2[nH]1,inactive: -6.41%
14,CCN(CCCNC(=O)c1nn(-c2ccc(C)cc2)c(=O)c2c1c1ccccc1n2C)c1ccccc1,inactive: 10.7%
15,COc1ccc(C(=O)Nc2ccc(-c3cc4ccccc4oc3=O)c(C)c2)cc1Br,inactive: -28.9%
16,Cc1ccc(C)c(N2CCN(C(=O)CCCn3ncn4c(cc5occc54)c3=O)CC2)c1,inactive: -32.7%
17,COc1cccc(CNC(=O)CCS(=O)(=O)c2cc3c(cc2C)NC(=O)CO3)c1,inactive: -5.69%
18,CCOc1ccc(CNC(=O)CCn2nc(C)c3c(C)n(-c4ccccc4)nc3c2=O)cc1,inactive: -19.2%
19,CCc1ccc(-n2c(=O)c3c(C)c(C(=O)N(C)C)sc3n(Cc3cccc(C)c3)c2=O)cc1,inactive: 2.54%
20,CN(C)c1ccc(CNC(=O)CCCN2C(=O)CCn3nc(-c4cccn4C)cc32)cc1,inactive: 7.94%
21,Cc1ccc(-n2c(=O)c3c4c(sc3n(Cc3ccccc3F)c2=O)CCC4)cc1C,inactive: -7.97%
22,Cc1nc(-c2ccc(Cl)cc2)sc1CCNC(=O)c1ccco1,inactive: 27.2%
23,Cc1ccc(O)c(-c2ccnc3cc(-c4ccc(Cl)cc4)nn23)c1,inactive: -15.3%

row,Structure (SMILES),"activity change, positive = activation"
1,COc1cc(-c2nc3sccn3c2Nc2cccc(C)c2)ccc1O,inactive: -17.8%
2,Cc1coc2cc3oc(=O)c(CC(=O)NCc4ccc(F)cc4)c(C)c3cc12,inactive: -14.2%
3,Oc1ccccc1-c1nc(/C=C/c2ccccc2Cl)no1,inactive: -36.3%
4,Cc1ccc(Cn2c(=O)n(Cc3nc(-c4ccccc4)no3)c(=O)c3cc4c(cc32)OCO4)cc1,inactive: -18.1%
5,COc1ccccc1OCCCn1c(C2CC(=O)N(c3ccccc3Cl)C2)nc2ccccc21 (stereo unspecified),inactive: -19.1%
6,COc1ccc(C(=O)Nc2ccc3nc(SCc4ccc(C)cc4)sc3c2)cc1,inactive: -19.8%
7,CCN(CCCNC(=O)c1cc2c(=O)[nH]c3ccccc3c2s1)c1ccccc1,inactive: -20.5%
8,CCC1CCCCN1S(=O)(=O)c1ccc(NC(=O)c2cc(=O)c3ccccc3o2)cc1 (stereo unspecified),inactive: -17.8%
9,O=S(=O)(c1ccc(-n2cnnn2)cc1)N1CCN(c2ccccc2F)CC1,inactive: -21.9%
10,O=C(Nc1nc(-c2ccc(Br)cc2)ns1)c1ccc(F)cc1,inactive: -18.2%
11,CCCCOc1ccc(C2c3c(-c4ccccc4O)n[nH]c3C(=O)N2Cc2ccncc2)cc1OC (stereo unspecified),inactive: -30.8%
12,CC(=O)c1cccc(NC(=O)Cn2c(SCC(=O)Nc3ccc(F)cc3)nc3ccccc32)c1,inactive: -22.4%
13,CCC(=C(c1ccc(O)cc1)c1ccc(OCCNC)cc1)c1ccccc1,inactive: -28.1%
14,Cc1c2cnn(CC(=O)NCc3ccccc3)c(=O)c2c(C)n1Cc1cccc(Cl)c1,inactive: -34.9%
15,COc1ccc(-c2c(C#N)c(SCC(=O)Nc3ccccc3C)nc(C)c2C(=O)Nc2ccccc2)cc1OC,inactive: -24.3%
16,COCCCNC(=O)CSc1nc(-c2cccc(F)c2)[nH]c1-c1ccccc1,inactive: -24%
17,O=C(CN1CCN(Cc2ccccc2Cl)C1=O)NCc1ccccc1Cl,inactive: -14.9%
18,N#C/C(=C\c1ccc(Cl)cc1)C(=O)NCC1CCCO1 (stereo unspecified),inactive: -5.2%
19,Cn1cc(S(=O)(=O)c2ccccc2)c(=O)c2cc(F)c(N3CCOCC3)cc21,inactive: -4.76%
20,COc1ccc(CCN2C(=O)N(c3ccc(F)cc3)C(=O)C2CC(=O)Nc2ccccc2)cc1 (stereo unspecified),inactive: 0%
21,O=C(CCn1c(=O)c2cccn2c2ccc(F)cc21)NCc1ccccc1F,inactive: -5.35%
22,Cc1ccc(NC(=O)CSc2nc(-c3ccc(F)cc3)cc(C(F)(F)F)c2C#N)cc1,inactive: -4.31%
23,Cc1cccc(NC(=O)Cn2c(=O)n(Cc3ccc(C(=O)NCc4ccc5c(c4)OCO5)cc3)c(=O)c3ccccc32)c1,inactive: -12.6%
